The structures appear in SMILES notation. Hit rate of the full screen: of about 340,000 compounds, about 6,900 (2%) were called active. Cut-off read from the data, not from the text of the source: active = inhibition above about 30%; inactive = below that, where a call was filed. This is a selection; strong and weak results do not stand in their true shares. Where no call is shown, the source filed none.

Chain of UniProt P14416 (P14416 whole entry, looked up): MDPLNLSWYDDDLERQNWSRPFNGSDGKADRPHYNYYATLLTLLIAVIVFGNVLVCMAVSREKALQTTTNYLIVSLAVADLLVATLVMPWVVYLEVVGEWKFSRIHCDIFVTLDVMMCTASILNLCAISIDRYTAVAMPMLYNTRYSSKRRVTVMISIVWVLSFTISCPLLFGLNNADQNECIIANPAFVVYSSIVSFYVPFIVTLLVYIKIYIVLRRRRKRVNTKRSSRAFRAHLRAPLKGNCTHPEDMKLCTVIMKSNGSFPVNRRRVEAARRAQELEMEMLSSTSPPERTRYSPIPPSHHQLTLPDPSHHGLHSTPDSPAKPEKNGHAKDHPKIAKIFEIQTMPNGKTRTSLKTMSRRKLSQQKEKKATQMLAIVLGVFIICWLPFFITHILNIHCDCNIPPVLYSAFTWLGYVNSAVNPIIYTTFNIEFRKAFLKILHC

The target of this assay is D(2) dopamine receptor (Homo sapiens) (UniProt P14416). As to the kind of experiment: HTS Assay for Allosteric Antagonists of the Human D2 Dopamine Receptor: Primary Screen for Antagonists. Note: 0% is about no effect. Particulars: HEK293 TREx D2 cells, calcium flux, dopamine EC80; at 10 µM; stronger effect = higher value. The method in brief:
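Antagonism is scored as inhibition of an EC80 dopamine-evoked calcium signal in a force-coupled, tetracycline-inducible HEK293 T-REx D2 line, with compound present 180 s before agonist.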
A general note: Calcium flux is commonly read through the fluorescence of an indicator in the cells.
Turning to `O=C(c1ccccc1)N1CCN(CCc2ccncc2)CC1`, the inhibition (as a rule, the relative decrease from the control value, in per cent) amounted to 27%.

In the case of `COc1ccc(OC)c(NS(=O)(=O)c2ccc3c(c2)C(C)(C)C(=O)N3C)c1`, the inhibition was determined as 22.9%.

For `COc1cc(CN2CCC(C(=O)N3CCN(c4ccccc4F)CC3)CC2)ccc1O`, the inhibition is active: 38.7%.

As for `COc1ccc(S(=O)(=O)Nc2cccc(-c3ccc(N4CCCC4)nn3)c2)c(OC)c1`, the inhibition was 9.73%.

Regarding `Cc1ccc(C)c(NC(=O)N2CCN(C(=O)c3nsc4ccccc34)CC2)c1`, the inhibition is -12.2%.

For `Cc1nnc(N2CCC(C(=O)NC3CCCCC3)CC2)c2nn(-c3ccccc3)c(C)c12`, the inhibition was 10.4%.

Turning to `COc1ccc(CNC(=O)c2cc3cc4cc(OC)ccc4nc3o2)cc1`, the inhibition was found to be 10.5%.

As to `COc1cccc(CNC(=O)c2ccc3c(c2)c(C)c(C)n3Cc2ccccc2)c1`, the inhibition amounted to 9.4%.

As to `Cc1noc(C)c1COc1ccc(C(=O)OC(C)C(=O)Nc2ccc(N3CCOCC3)cc2)cc1` (stereo unspecified), the inhibition was active: 44.7%.

Consider `CCOc1ccccc1N(CC)C(=O)Cn1ncc2c([nH]c3ccccc32)c1=O`, for which the inhibition stood at 1.26%.

Regarding `NC(=O)C1CCN(C(=O)c2ccc(NC(=O)c3nsc4ccccc34)cc2)CC1`, the inhibition is -6.85%.

Turning to `O=C(CNC1CCN(Cc2ccccc2)CC1)Nc1ccc(S(=O)(=O)N2CCCCC2)cc1`, the inhibition was active: 37%.

Consider `CCOc1ccccc1-c1nc(CN2CCCN(C(=O)c3ccco3)CC2)c(C)o1`, for which the inhibition was active: 32.8%.

Turning to `COc1ccc(NC(=O)c2cc(S(=O)(=O)N3CCOCC3)ccc2OC)cc1`, the inhibition worked out at 3.47%.

As for `COc1ccc(S(=O)(=O)N2CCC(C(=O)Nc3ccc(Oc4ccccc4)cc3)CC2)cc1`, the inhibition was -22.2%.

Regarding `COc1ccc(Cn2c(C(=O)O)c(CNCc3ccccc3F)c3ccc(OC)cc32)cc1`, the inhibition is -8.96%.

For `COC(=O)c1ccc(C2c3c(-c4ccccc4O)n[nH]c3C(=O)N2Cc2cccnc2)cc1` (stereo unspecified), the inhibition stood at 10.7%.

As to `CCCSc1ncc(Cl)c(C(=O)Nc2ccc(S(=O)(=O)N(C)c3ccccc3)cc2)n1`, the inhibition stood at 8.74%.

Regarding `CCN(CCCNC(=O)Cn1ncc2c3ccccc3n(C)c2c1=O)Cc1ccccc1`, the inhibition was -4.63%.

As to `COc1cccc(CN(C)C(=O)CNC(=O)c2cccs2)c1OC`, the inhibition is active: 37.6%.

Take `O=C(Nc1cc(-c2nc3cc(Cl)ccc3o2)ccc1Cl)c1ccco1`: the inhibition was -14.5%.

Turning to `CC1CCCN(C(=O)CSc2c3c(nc4cc(Cl)ccc24)CCCC3)C1` (stereo unspecified), the inhibition was 15.4%.

Regarding `CCc1ccc(NC(=O)CSc2nc(=O)n(Cc3ccccn3)c3c2CCC3)cc1`, the inhibition came out at 19.5%.

In the case of `O=C(Nc1nnc(S(=O)(=O)N2CCCc3ccccc32)s1)c1cccc(Cl)c1`, the inhibition turned out to be 11.9%.

Turning to `COc1cccc(C2C(C(=O)Nc3ccc(C)cc3C)=C(C)Nc3c(C(=O)Nc4ccccc4)cnn32)c1` (stereo unspecified), the inhibition was 14.2%.

For the compound `CCc1ccc(NC(=O)N2CCOc3ccc(Cl)cc32)cc1`, the inhibition was -10.5%.

Take `COc1cc(Cl)c(S(=O)(=O)NCCc2c(C)[nH]c3c(C)cccc23)cc1Cl`: the inhibition was 8.08%.

For `COC(=O)c1ccc(NC(=O)CC2C(=O)N(c3cccc(OC)c3)C(=O)N2Cc2cccs2)cc1` (stereo unspecified), the inhibition is 6.51%.

Take `Cc1ccc(-c2nc(NC(=O)CSc3cc(C)c4ccccc4n3)ns2)cc1`: the inhibition was found to be 19.1%.

Consider `CCOC(=O)C1CCN(Cc2cnc(Oc3ccc(N)cc3)s2)CC1`, for which the inhibition was active: 67.1%.

On to `COc1ccccc1CNS(=O)(=O)c1ccc2c(c1)CC(C)N2C(C)=O` (stereo unspecified), for which the inhibition was found to be 3.13%.

Turning to `O=C(NCc1ccccc1)c1ccc(CNS(=O)(=O)c2ccc(Br)cc2)cc1`, the inhibition is -4.15%.

For `CC1CCN(S(=O)(=O)c2ccc3c(c2)N(CC(=O)NC(C)c2ccccc2)C(=O)CS3)CC1` (stereo unspecified), the inhibition came to 10.8%.

On to `O=C(Cc1cccs1)NCCCc1ccccc1`, for which the inhibition is active: 69.4%.

Take `CC(C)Cn1cc(NC(=O)N2CCN(c3cccc(Cl)c3)CC2)c2ccccc2c1=O`: the inhibition stood at 1.98%.

As to `Cc1ccc(C)c(N2CCN(S(=O)(=O)c3ccc4[nH]c5c(c4c3)CCCCC5)CC2)c1`, the inhibition was 9.25%.

Take `Cc1ccc(CN2CCC(c3nc4ccc(Cl)cc4[nH]3)CC2)cc1`: the inhibition was active: 86.8%.

In the case of `CCN(CC)S(=O)(=O)c1ccc(NC=C(C#N)C#N)cc1`, the inhibition is active: 74.1%.

Turning to `COc1ccc(CCNC(=O)C(=O)Nc2ccccc2F)cc1`, the inhibition is -4.92%.

Consider `COc1ccccc1C(=O)NCCn1cc(SCC(=O)Nc2ccccc2F)c2ccccc21`, for which the inhibition came out at 8.7%.

Consider `Cc1ccc(CNC(=O)C(=O)Nc2c3c(nn2-c2ccccc2)CSC3)cc1`, for which the inhibition worked out at 10%.

As for `CCOC(=O)C(=NCCCN(C)C)NNc1cc(C(F)(F)F)ccc1Cl`, the inhibition was active: 35.2%.

On to `CCCCN(CC)C(=O)CSc1nc2n[nH]c(C)c2c(=N)n1-c1cccc(Cl)c1`, for which the inhibition is -19.5%.

As for `CCOC(=O)c1[nH]c(C)c(CCC(=O)N2CCN(c3cccc(OC)c3)CC2)c1C`, the inhibition was -1.12%.

As to `CCOc1ccc(NC(=O)Cn2ncc3c2-c2cc(C)ccc2OC3)cc1`, the inhibition came to 14.2%.

For the compound `Cc1ccc(NC(=O)Cc2ccc(-n3c(C)nc4cccnc43)cc2)c(Cl)c1`, the inhibition stood at 11.1%.

For the compound `CCC(=O)N1CCc2cc(Br)cc(S(=O)(=O)CCC(=O)NCc3ccccc3OC)c21`, the inhibition is -10.1%.

Consider `CCO[C@H]1OC(C(=O)N2CCCCCCC2)=C[C@@H](c2ccc(C(F)(F)F)cc2)[C@@H]1CCCO`, for which the inhibition is active: 30.3%.

For the compound `Cc1csc(NS(=O)(=O)c2cccc([N+](=O)[O-])c2)n1`, the inhibition is active: 34.3%.

For `CCOCCc1nn2c(=O)cc(COC(=O)c3ccccc3NC(=O)C3CCCCC3)nc2s1`, the inhibition is 3.46%.

For `COc1cccc(-c2nc(SCC(=O)Nc3ccc4c(c3)OCCO4)c(-c3ccccc3)[nH]2)c1`, the inhibition is -7.85%.

As for `O=C(NCCn1cc(SCc2ccc(Cl)cc2)c2ccccc21)c1cccs1`, the inhibition came to 1.03%.

Turning to `COc1cc(OC)c(N(C)C(=O)CCNC(=O)Cn2cnc3ccccc3c2=O)cc1Cl`, the inhibition was 19.5%.

Turning to `CN(C)CCNC(=O)Cn1c(=O)c2cccn2c2ccc(F)cc21`, the inhibition was -16.2%.

In the case of `O=S1(=O)c2ccccc2N(Cc2cccc(C(F)(F)F)c2)c2ccccc21`, the inhibition was found to be 6.63%.

As for `CCCCN(CCCC)CCNC(=O)Cn1nc(CC)n2c(cc3sc(C)cc32)c1=O`, the inhibition came out at 4.51%.

`Cc1cccc(NC(=O)Cn2c(=O)n(CCCS(=O)(=O)C3CCCCC3)c(=O)c3ccccc32)c1`: the inhibition is -2.16%.

Regarding `CCOCCCNC(=O)c1[nH]c2cc(C)ccc2c1Sc1ccc(Cl)cc1`, the inhibition worked out at 12.2%.

`CCOC(=O)c1ccc(-n2c(C)nc3c(cnn3-c3ccc(Cl)cc3)c2=O)cc1`: the inhibition stood at 9.62%.

Turning to `c1ccc(Cc2nnc3sc(-c4cccs4)nn23)cc1`, the inhibition is active: 73.1%.

Consider `COc1ccc(CCNC(=O)c2c(O)nc3c(C)cccn3c2=O)cc1`, for which the inhibition was determined as 6.15%.

In the case of `COc1ccc(C(=O)N2c3ccccc3C(C)(c3ccc(Cl)cc3)CC2(C)C)cc1` (stereo unspecified), the inhibition is -17.3%.

On to `Cc1ccc(-c2onc(C)c2C)cc1S(=O)(=O)N1c2ccccc2CC1C` (stereo unspecified), for which the inhibition was -5.05%.

`Cc1ccccc1Nc1c(-c2ccco2)nc2c(C)cccn12`: the inhibition was 5.79%.

For `O=C(c1cccc(C(F)(F)F)c1)C1CCCN(Cc2cccn2-c2ncccn2)C1` (stereo unspecified), the inhibition was active: 32%.

Regarding `Cc1ccc(NC(=O)CCS(=O)(=O)c2cccc3nonc23)cc1Cl`, the inhibition was found to be 3.5%.

With `CC1CCCCN1S(=O)(=O)c1ccc(C(=O)Nc2sc3c(c2C(N)=O)CC(C)(C)NC3(C)C)cc1` (stereo unspecified), the inhibition was determined as 5.26%.

Regarding `Cc1ccc(CS(=O)(=O)c2ncc(Cl)c(C(=O)Nc3nc4ccc(C)cc4s3)n2)cc1`, the inhibition is -15.4%.

`Cc1n[nH]c(C)c1S(=O)(=O)N(CC(=O)Nc1ccc(C(F)(F)F)cc1)c1ccc(C(C)C)cc1`: the inhibition came out at 11%.

Take `Cn1c(=O)[nH]c(=O)c2c1nc(N1CCN(CCO)CC1)n2Cc1ccccc1Cl`: the inhibition was active: 30%.

As to `Cc1ccc(C)c(CN2C(=O)c3ccccc3S(=O)(=O)c3ccc(C(=O)N4CCN(c5ccccc5)CC4)cc32)c1`, the inhibition was 1.06%.

Regarding `COc1ccccc1OCCSc1nc2ccccc2n1CC(=O)N1CCOCC1`, the inhibition worked out at 15.5%.

In the case of `C#CCSc1nc2sc3c(c2c(=O)n1Cc1ccccc1)CCCC3`, the inhibition is 13.3%.

Take `O=C(Cn1c(=O)oc2ccccc21)Nc1ccc(C(=O)O)cc1`: the inhibition stood at 5.92%.

Consider `COc1cc(NC(=O)c2cccc3c2C(=O)N(C2CCCCC2)C3)cc(OC)c1`, for which the inhibition worked out at 1.84%.

As to `CCn1c(=O)c(C(=O)Nc2ccc(C(C)=O)cc2)nc2ccccc21`, the inhibition was 8.98%.

`CCOc1ccccc1NC(=O)CSc1nc2cc(OC)c(OC)cc2c2nc(-c3ccccc3)nn12`: the inhibition was -7.67%.

For `Oc1c(C(c2ccc(Cl)cc2)N2CCC3(CC2)OCCO3)sc2nc(-c3ccco3)nn12` (stereo unspecified), the inhibition is 3.34%.

Consider `O=C(NCCc1ccc(Cl)cc1)c1cnc2sc(N3CCCCC3)nn2c1=O`, for which the inhibition turned out to be 0.0221%.

On to `COc1ccc2c(c1)sc1ncc(C(=O)NCc3ccc(OC(C)C)cc3)c(=O)n12`, for which the inhibition was 6.73%.

As for `Cc1ccc(NC(=O)Cn2c(=O)n(Cc3ccco3)c(=O)c3sc4ccccc4c32)cc1C`, the inhibition turned out to be 15.4%.

As to `COc1ccc(-c2cc(C(F)(F)F)nc(SCCC(=O)Nc3cc(C)ccc3O)n2)cc1`, the inhibition was found to be 7.81%.

Regarding `CCc1ccc(-c2[nH]c3c(c2-c2sc(C)c(C(=O)OC)c2O)c(=O)[nH]c(=O)n3C)cc1`, the inhibition was determined as 0.614%.

In the case of `Cc1nn(C(=O)c2ccc(Br)cc2)c(C)c1S(=O)(=O)N1CCOCC1`, the inhibition is -0.897%.

In the case of `Cc1coc2c(C)c3oc(=O)c(CCC(=O)NCCc4ccccc4)c(C)c3cc12`, the inhibition was -4.91%.

Take `CCOc1ccc(CCNC(c2cccc(Cl)c2)c2nnc(-c3ccccc3)o2)cc1OCC` (stereo unspecified): the inhibition was -0.21%.

Turning to `Cn1c(NCCO)nc2c1c(=O)n(Cc1cccc(F)c1)c(=O)n2C`, the inhibition was 7.11%.

For `COC(=O)c1ccc2c(c1)N(Cc1ccc(F)cc1)C(=O)c1ccccc1S2`, the inhibition came to 5.33%.

As to `COc1cccc(/C=C/c2nc(C#N)c(NCCc3ccc(OC)c(OC)c3)o2)c1`, the inhibition is -4.97%.

Regarding `CCCCN(CCCC)S(=O)(=O)c1ccc2oc(C(=O)NCc3ccc(C)cc3)c(C)c2c1`, the inhibition is -3.76%.

`CCCCN1C(=O)C(O)(c2c[nH]c3ccccc23)c2cc(Br)ccc21` (stereo unspecified): the inhibition was found to be 0.196%.

Turning to `COc1ccc(Cl)cc1-n1c(/C=C/c2cccc3ccccc23)nc2ccccc2c1=O`, the inhibition is -4.22%.

Regarding `COc1ccc(-c2nc(CSc3nncn4c3cc3occc34)c(C)o2)cc1`, the inhibition is -5.06%.

As to `Clc1cccc(OCCCN2CCCC2)c1Cl`, the inhibition was active: 51.6%.

`Cc1ccccc1-c1noc(CCC(=O)Nc2cccc(C)c2C)n1`: the inhibition is -3.67%.

For the compound `O=C(Nc1cccc(OCc2cc(=O)n3c4c(sc3n2)CCCC4)c1)c1ccc(F)cc1`, the inhibition was found to be 11.4%.

(Values after PubChem BioAssay AID485344 (National Center for Advancing Translational Sciences (NCATS), 2010).)
